Data published in PubChem BioAssay AID493208 (National Center for Advancing Translational Sciences (NCATS), 2011).
The campaign covered roughly 44,000 compounds. About 340 (0.77%) were called active. Another 5% or so got no clear call; they are omitted. Calls come from the whole dose curve; as a rule, active = well fitted inhibition curve with a large enough effect; inconclusive = small, poorly fitted or top-dose-only effect; inactive = flat fitted curve, though single readings scatter. The list shows a part of the results.

assay: Acumen qHTS Assay for Inhibitors of the mTORC1 Signaling Pathway in MEF (Tsc2-/-, p53-/-) Cells: Sytravon; conditions: phospho-rpS6 immunofluorescence/PI, 24 h; series mostly up to 38.3 µM; activity change, negative = inhibition: at the top concentration;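 note: plate controls were DMSO for no effect and rapamycin for full effect; nearly all actives have a fitted effect of over 50% in size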
Outline: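 Tsc2-/-, p53-/- mouse embryonic fibroblasts (empty-vector line) exposed to compound 24 hrs at 37 C, fixed, immunostained for phospho-rpS6 and counterstained with propidium iodide. Acumen laser scanning gives % positive cells from Alexa 488/PI ratio, thresholded using 7.5 nM rapamycin; PI count gives viability.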

Activity change, negative = inhibition, inactive:
Nc1c(-c2nc(-c3ccccc3Cl)no2)nnn1-c1ccccc1C(F)(F)F -4.92%
COc1ccccc1NC(=O)N1CCN(c2nnc(C)c3c(C)n(-c4ccccc4)nc23)CC1 -30.5%
O=c1c2oc3ccccc3c2n(Cc2ccccc2F)c(=O)n1Cc1ccc2c(c1)OCO2 3.15%
CCN(CC)S(=O)(=O)c1ccc(NC(=O)c2c(C)oc3ncnc(N4CCCCC4)c23)cc1 6.54%
CCN(CC)CCN(C(=O)c1ccco1)c1nc2ccc(F)cc2s1 -14.8%
Cc1ccc(-c2nnc(SCC(=O)NCc3ccccc3)o2)cc1 3.28%
COc1ccc(OC)c(CCNC(=O)CCCn2c(=O)c3cccn3c3cccnc32)c1 1.69%
CCOc1ccc(CNS(=O)(=O)c2ccc3c(c2)CC(C)N3C(C)=O)cc1OC (configuration not stated) -8.97%
O=C(NCc1ccccc1)c1ccc(CS(=O)(=O)c2c(Cl)cccc2Cl)o1 2.62%
Cc1ccc(NC(=O)Cn2nc(C)c3nn(-c4ccc(Cl)cc4)c(C)c3c2=O)cc1F 11.4%
COc1ccc(N2CCN(C(=O)CSc3nc(-c4ccccc4)no3)CC2)cc1 10.1%
COc1ccc(CNC(=O)c2cnn(-c3ccccc3)c2-n2cccc2)cc1OC -22.1%
COc1ccc(-c2n[nH]c3c2C(c2ccccn2)N(C)C3=O)cc1 (configuration not stated) -2.1%
COc1ccc(-n2nc3c(N4CCC(C(=O)NC5CCCCC5)CC4)nnc(C)c3c2C)cc1 0.767%
CCOc1ccc(OCC)c(NC(=O)CN(C)S(=O)(=O)c2ccc3[nH]c(=O)oc3c2)c1 0%
CCOC(=O)c1[nH]c(C)c(CCC(=O)N2CCN(c3cc(C)ccc3C)CC2)c1C 0%
Cc1ccc2oc(=O)c3cnn(CC(=O)N4CCN(c5cccc(Cl)c5)CC4)c3c2c1 -11.2%
Cc1cccc(C(=O)Nc2ccc3nc(SCC(=O)N4CCCC4)sc3c2)c1 -5.47%
O=C(CSc1nc(=O)[nH]c2c1CCC2)Nc1cc(C(F)(F)F)ccc1Cl -1.15%
Cc1cc(C(=O)NCCc2ccc(Cl)cc2)c2c(C)nn(-c3ccccc3)c2n1 3.72%
COc1cc(CNC(=O)c2ccc(NC(=O)N3CCCCc4ccccc43)cc2)cc(OC)c1OC -24%
CCc1ccccc1NC(=O)C1CCCN(S(=O)(=O)c2ccc3[nH]c(=O)ccc3c2)C1 (configuration not stated) 1.39%
Cc1ccc(OCC(=O)NCC(=O)OCc2cc(=O)n3nc(CC(C)C)sc3n2)cc1 -19.4%
O=C(c1cccs1)N1CCCc2cc(NS(=O)(=O)c3cc(F)ccc3F)ccc21 2.1%
O=C(NCCc1ccc(Cl)cc1)c1cnc2sc(N3CCCC3)nn2c1=O -3.61%
CC(=O)c1ccc(NC(=O)C2CCN(S(=O)(=O)c3c(C)noc3/C=C/c3ccc(C)cc3)CC2)cc1 0.666%
COc1ccc(CNC(=O)CN2C(=O)COc3ccccc32)c(OC)c1 0.289%
Cc1ccc2nc(NC(=O)CSc3cc(C)[nH]c(=O)n3)sc2c1 2.96%
Oc1ccccc1-c1nc2cnccn2c1Nc1ccc(Cl)cc1 0.505%
COc1ccc(-c2nn3c(-c4ccccc4)nnc3c3ccccc23)cc1 1.74%
CCOc1ccc(CNC(=O)CCCn2c(=O)c3cccn3c3cccnc32)cc1 -14.2%
O=S(=O)(NCCc1csc(-c2cccc(F)c2)n1)c1cc(F)ccc1F -8.82%
Cc1ccccc1Cn1c(SCc2ccc(C(=O)N3CCCCC3)cc2)nc2ccncc21 0.229%
CCCOc1ccc(OC(=O)c2ccc(-c3ccc(CCC)cn3)cc2)cc1 3.18%
COc1ccc(CCNC(=O)c2cc(Nc3ccccc3)nc3ccccc23)cc1OC 1.08%
O=C1CCc2cc(S(=O)(=O)NCc3ccccc3)cc3c2N1CC3 -0.204%
COc1cc(NC(=O)CCNC(=O)Cn2ccc3ccccc3c2=O)cc(OC)c1OC -8.53%
COC(=O)c1c(NC(=O)CCCOc2ccc(C)cc2)sc2c1CCCC2 -3.38%
CCn1c(C(=O)Nc2ccccc2C(=O)OC)cc2sc(Cl)cc21 -1.74%
Cc1nc2c(c(C)nn2-c2ccccc2)c(C)c1CCC(=O)Nc1ccccc1 -8.33%
Cc1ccc(NC(=O)Cn2c(=O)n(Cc3ccc(F)cc3)c(=O)c3cccnc32)cc1C -0.3%
O=C(Nc1ccc(S(=O)(=O)N(Cc2ccccc2)c2ccccc2)cc1)c1ccccc1F -6.24%
CCCn1ccc2c(OCC(=O)Nc3ccccc3C(=O)OCC)cccc2c1=O -8.68%
O=C(CCCCn1c(=O)c2ccccc2n(Cc2ccc(F)cc2Cl)c1=O)NCCc1ccc(Cl)cc1 -16.3%
COC(=O)c1ccccc1NC(=O)CCCn1c(C)c2cnn(-c3ccccc3)c(=O)c2c1C -16.6%
COc1ccccc1CNC(=O)Cc1c(C)c2cc3c(C)coc3c(C)c2oc1=O -0.11%
COc1ccc(CNC(=O)CC(C)CC2=NS(=O)(=O)c3ccccc3N2)cc1 (configuration not stated) 0.34%
Cc1ccccc1Cn1c(=O)n(Cc2ccco2)c(=O)c2sc3ccccc3c21 -0.26%
CCOc1ccc(S(=O)(=O)Nc2ccc3c(c2)CCCN3C(=O)c2cccs2)cc1 0%
CCOc1ccc(CCNC(=O)C2Cc3ccccc3N2C(=O)CC)cc1 (configuration not stated) 0%
CCOC(=O)c1ccc(Nc2c(-c3ccc(OC)cc3)nc3nc[nH]n23)cc1 -0.645%
CCC(=O)N1CCc2cc(CNC(=O)Nc3cc(OC)c(OC)c(OC)c3)ccc21 -7.05%
CCN(CC)C(=O)C1=C(C)Nc2nc3ccccc3n2C1c1ccccc1F (configuration not stated) 1.4%
CCOC(=O)c1cc2c(=O)n3ccccc3nc2n(CCCOC)c1=NC(=O)c1c(-c2c(F)cccc2Cl)noc1C 3.1%
O=C(Cc1ccc(NC(=O)N2CCCCc3ccccc32)cc1)NCc1cccc(Br)c1 -11.5%
Cc1cccc(N2CCN(C(=O)Cn3c(C)c4cnn(-c5ccccc5)c(=O)c4c3C)CC2)c1C 5.05%
COc1ccc(CNC(=O)C(=O)NCC(c2ccco2)S(=O)(=O)c2cccs2)cc1 (configuration not stated) 1.86%
CCCCn1c(SCc2ccccc2C)nc2ccsc2c1=O 6.67%
Cc1nnc(SCc2cc(=O)c3cc(F)ccc3[nH]2)n1C 4.86%
Cc1ccc(NC(=O)c2ccc3c(O)c(S(=O)(=O)c4ccc(Cl)cc4)c(=O)[nH]c3c2)cc1 -6.49%
CCOC(=O)C1CCCN(C(=O)Cn2ncc3c(C)n(Cc4ccc(Cl)cc4)c(C)c3c2=O)C1 (configuration not stated) -0.842%
Cc1ccc(NS(=O)(=O)c2ccc3c(c2)CCN3C(=O)C2CC2)c(C)c1 0.917%
CC1=C(C#N)C(NC(=O)c2ccccc2)(C(F)(F)F)C(=O)N1 (configuration not stated) -1.95%
C=C(C)Cn1c(SCC(=O)c2ccc(Br)cc2)nc2sc3c(c2c1=O)CCCC3 -2.13%
CC(C)c1ccccc1NC(=O)C(Cc1c[nH]c2ccccc12)NC(=O)OC(C)(C)C (configuration not stated) -12.8%
Cc1ccc(S(=O)(=O)c2nc(-c3cccs3)oc2SCc2ccc(F)cc2)cc1 -0.348%
COc1ccc(NC(=O)c2ccc(NC(=O)N3CCSc4ncccc43)cc2)cc1 -9.97%
COCCn1c(CNC(=O)c2cccc(C)c2)nc2cccnc21 0.0882%
COCCNC(=O)C1CCN(Cc2cc3ccccc3n2Cc2ccc(C)cc2)CC1 -1.01%
COc1ccccc1NC(=O)C1=C(C)Nc2nc(SCc3ccccc3)nn2C1c1cccc(O)c1 (configuration not stated) -2.17%
COc1ccc(NC(=O)c2nnn(Cc3nc(-c4cc(OC)c(OC)c(OC)c4)oc3C)c2C)cc1Cl -9.12%
COc1ccccc1CNC(=O)c1ccc2[nH]c(C)c(C)c2c1 -1.17%
O=C(COc1ccc(F)cc1)Nc1nnc(S(=O)(=O)N2CCCC2)s1 4.44%
COc1ccc(OC)c(NS(=O)(=O)c2ccc(-n3cccn3)cc2)c1 -12.2%
CCCCNC(=O)C(CC)Sc1nc2ccccc2c(=O)n1Cc1ccco1 (configuration not stated) -0.0875%
COc1cc(NC(=O)C2CCN(S(=O)(=O)Cc3ccccc3)CC2)c(OC)cc1Cl 2.05%
COCCNC(=O)c1sc2ncccc2c1-n1c(C)ccc1C -1.27%
CCC(C)n1c(=O)c2sccc2n2c(CCCC(=O)NCc3ccccc3Cl)nnc12 (configuration not stated) 5.33%
Cc1ccc(C(=O)c2sc(Nc3ccccc3)c(S(=O)(=O)c3ccccc3)c2N)c(C)c1 -16.2%
CCOC(=O)c1cccc(NC(=O)Cn2c(=O)c3cccn3c3ccccc32)c1 -19.8%
Cc1cccc(N(C)S(=O)(=O)c2nnc(NC(=O)c3cccs3)s2)c1 7.64%
Cc1cc(C)n2nc(CNC(=O)c3c(F)cccc3F)nc2n1 -4.66%
Cc1ccc(-c2cn3cccnc3n2)cc1NC(=O)Nc1ccc(F)cc1 -0.846%
COc1ccc2c(c1)c(=O)c(S(=O)(=O)c1ccc(F)cc1)cn2Cc1ccccc1Cl -9.29%
CC(C)(C)OC(=O)N1CCC(c2c(C(=O)N3CCN(c4ccccn4)CC3)cnn2-c2ccc(F)cc2)CC1 5.89%
COCCNC(=O)CN1C(=O)c2cccnc2Sc2ccccc21 -10.1%
O=C(Cn1ncc2c1-c1ccccc1OC2)N1CCN(c2ccccc2)CC1 -3.67%
COc1cccc2c(C)cc3nnc(SCC(=O)Nc4ccc(C)cc4)n3c12 -0.1%
O=C(c1ccc2c(c1)OCO2)c1cn(Cc2ccc(Cl)cc2)c2ccc(F)cc2c1=O -6.82%
CCCCOc1ccc(C(=O)N2CCCCC2CCN2CCOCC2)cc1 (configuration not stated) -1.73%
CC1CCC(NC(=O)c2ccc(CS(=O)(=O)c3ccc(Cl)cc3)o2)CC1 (configuration not stated) -9.93%
CCN(CC)S(=O)(=O)c1ccc(C(=O)NCCSc2c(-c3ccc(F)cc3)[nH]c3ccccc23)cc1 5.98%
CC(=O)c1ccc(NC(=O)CSc2nc(-c3ccc(C)cc3)nc3c2c(=O)n(C)c(=O)n3C)cc1 12.2%
CCn1c(=O)cc(OCC(=O)N2CCN(c3ccc(C)cc3)C(C)C2)c2ccccc21 (configuration not stated) 0.604%
CCC(=O)Nc1ccc2nc(SCCOc3ccc(C)cc3OC)sc2c1 0%
Cc1cc(Cl)ccc1OCC(=O)N(Cc1sccc1C)C1CCS(=O)(=O)C1 (configuration not stated) 5.53%
COc1ccc(CNC(=O)c2cnc(N(C)C)nc2)cc1 16.9%
